The whole screen tested about 340,000 compounds, of which fewer than 10 were called active. The inconclusive results got no clear call from the source; some entries with a clear call stand among them for comparison. The call rests on the fitted dose curve; in most records, active means well fitted inhibition curve with a large enough effect in the main read-out, with a control signal flat (not every such curve was filed as active); inconclusive means small, poorly fitted or top-dose-only effect, or effect the other way, or a change in a side signal; inactive means no such curve, though single readings can be large or run the other way. Potencies of inconclusive entries are doubtful fits and often do not repeat. A note “side channel” means that the fit belongs to a control or component signal, not to the main read-out.
Biological target: Tumor susceptibility gene 101 protein (Homo sapiens) (UniProt Q99816)
Chain of UniProt Q99816 (Q99816 whole entry, looked up): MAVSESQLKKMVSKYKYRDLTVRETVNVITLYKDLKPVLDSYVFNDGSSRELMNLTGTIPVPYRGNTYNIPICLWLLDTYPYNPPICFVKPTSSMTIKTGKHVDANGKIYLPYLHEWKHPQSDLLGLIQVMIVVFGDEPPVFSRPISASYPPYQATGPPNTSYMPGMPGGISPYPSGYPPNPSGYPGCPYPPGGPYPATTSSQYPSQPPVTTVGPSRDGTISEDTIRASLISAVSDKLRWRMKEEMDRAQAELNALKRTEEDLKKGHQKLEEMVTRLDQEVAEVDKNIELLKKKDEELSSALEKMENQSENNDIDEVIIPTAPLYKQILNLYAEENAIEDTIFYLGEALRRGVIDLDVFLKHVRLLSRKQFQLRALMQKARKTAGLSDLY
Experiment: qHTS Assay for Iinhibitors of HIV-1 Budding by Blocking the Interaction of PTAP/TSG101
Settings: Fluorescence polarization, FITC-PTAP peptide / Tsg101 binding; series mostly up to 115 µM
In short: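 Tsg101 binding domain (10 uM final) was mixed with compound and a FITC-labeled PTAP peptide (50 nM final) in HEPES pH 7.5 buffer with NaCl, Tween 20, EDTA and TCEP; fluorescence polarization was read after 20 min at r.t.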
Potency means the concentration at half of the fitted maximal effect; tags describe the fitted curve by direction and shape or compound fluorescence and quenching.

Row | Compound | Potency
1 | CC(C)NC(=O)/C(C#N)=C\c1ccc(N(C)C)o1 | inconclusive: 50.1 µM [fluorescent, side channel, partial curve, poor fit]
2 | O=C(N/N=C/c1ccc(-c2ccc([N+](=O)[O-])cc2)o1)[C@H]1C[C@@H]1c1ccccc1 | inconclusive: 79.4 µM [fluorescent, side channel, partial curve]
3 | Cc1ccc(S(=O)(=O)N(C)C)cc1NC(=S)NC(=O)C12CC3CC(CC(C3)C1)C2 | inactive
4 | CCN1/C(=C/C(C)=C/c2sc3ccccc3[n+]2CC)Sc2ccccc21 | inconclusive: 50.1 µM [quencher, side channel, partial curve, poor fit]
5 | Cc1ccc(CNc2ccc3c(c2)OCO3)cc1 | inconclusive: 50.1 µM [fluorescent, side channel, partial curve, poor fit]
6 | C=CCN1C=CC(=CC=C(C#N)C#N)C=C1 | inconclusive: 20 µM [fluorescent, side channel, full curve]
7 | COc1cc2c(cc1O)C(Cc1ccc(O)cc1)NCC2 (stereo not drawn) | inactive
8 | COc1ccc2c(c1)c(=Cc1ccc(N(C)C)cc1)c1cc(-c3ccccc3)[n+](C)n12 | inconclusive: 50.1 µM [quencher, side channel, partial curve, poor fit]
9 | Nc1ccc2nc(-c3ccccc3)cnc2c1 | inconclusive: 50.1 µM [fluorescent, partial curve, poor fit]
10 | CCN(CC)c1ccc2cc(C=O)c(=O)oc2c1 | inconclusive: 50.1 µM [fluorescent, side channel, partial curve, poor fit]
11 | O=[N+]([O-])c1cc(Cl)c2cccnc2c1O | inconclusive: 50.1 µM [falling, partial curve, poor fit]
12 | CC(C)(C)C(=O)c1sc2nc(-c3cccs3)cc(C(F)(F)F)c2c1N | inconclusive: 50.1 µM [fluorescent, side channel, partial curve, poor fit]
13 | CCCCCn1nc(-c2ccccc2)c2nc3ccccc3nc21 | inconclusive: 79.4 µM [fluorescent, side channel, partial curve, poor fit]
14 | Cn1cccc1/C=C1\SC(=S)N(NC(=O)c2ccccc2Cl)C1=O | inconclusive: 79.4 µM [fluorescent, side channel, partial curve]
15 | COC(=O)C1=C(C)N(Cc2ccccc2)C(=NCc2cccc(C(F)(F)F)c2)N[C@H]1c1cccc(C(F)(F)F)c1 | inconclusive: 89.1 µM [fluorescent, single point]
16 | Cc1ccc(CSc2nnc3c(n2)OC2(Nc4ccccc4-3)C(=O)Nc3ccc(F)cc32)cc1 (stereo not drawn) | inconclusive: 50.1 µM [fluorescent, partial curve, poor fit]
17 | CCN1CCN(CC(=O)c2c[nH]c3ccc(C)cc23)CC1 | inactive

Row | Compound | Potency
18 | N#CCSc1ccccc1NC(=O)COc1ccc(-c2nnco2)cc1 | inconclusive: 31.6 µM [fluorescent, side channel, partial curve, poor fit]
19 | CNc1ccccc1C(=O)OCC(=O)Nc1ccc2c(c1)OCO2 | inactive
20 | Cn1c(=O)c(N)c2c3c(c(Br)ccc31)C(=O)c1ccccc1-2 | inconclusive: 8.91 µM [fluorescent, side channel, full curve, poor fit]
21 | O=C(Nc1ccccc1)c1nn(-c2ccccc2)c(=O)cc1C(F)(F)F | inconclusive: 50.1 µM [fluorescent, side channel, partial curve, poor fit]
22 | CCOC(=O)/C=c1\s/c(=C\c2ccc3cc(OC)ccc3c2)c(=O)n1CC(=O)NCc1ccc2c(c1)OCO2 | inconclusive: 50.1 µM [fluorescent, side channel, partial curve, poor fit]
23 | CC(=O)c1cccc(NC(=O)c2cnn(-c3ccccc3)c2C)c1 | inactive
24 | COc1cc(/C=N/OCC(=O)Nc2ccc(OC(F)F)cc2)ccc1OCc1ccccc1 | inconclusive: 89.1 µM [fluorescent, side channel, partial curve, poor fit]
25 | CCN(CC)c1ccc(C=C(c2nnnn2-c2ccccc2)c2nnnn2-c2ccccc2)cc1 | inconclusive: 79.4 µM [fluorescent, side channel, partial curve, poor fit]
26 | CCOC(=O)CN1C(=O)S/C(=C/c2ccc(N3CCCCC3)o2)C1=O | inconclusive: 50.1 µM [fluorescent, side channel, partial curve, poor fit]
27 | Cc1c(O)c2c3c(cccc3c1O)C(=O)N(c1ccccc1)C2=O | inconclusive: 50.1 µM [fluorescent, side channel, partial curve, poor fit]
28 | COc1ccc(C)cc1Nc1n[n+](C)c(-c2c3ccccc3cc3ccccc23)s1 | inconclusive: 70.8 µM [fluorescent, side channel, partial curve, poor fit]
29 | COc1ccc2c3c(cccc13)C(=O)CC2 | inconclusive: 50.1 µM [fluorescent, side channel, partial curve, poor fit]
30 | Cn1c(O)c(/C=N/NC(=O)c2cc3ccccc3cc2O)c2ccccc21 | inconclusive: 56.2 µM [fluorescent, side channel, partial curve, poor fit]
31 | CCCCCCC(C)NC(=S)Nc1cc(S(=O)(=O)N(C)C)ccc1C (stereo not drawn) | inconclusive: 79.4 µM [quencher, side channel, partial curve, poor fit]
32 | CCO[C@@H]1OC(C(=O)NCc2ccccc2)=C[C@H](c2ccc(C(F)(F)F)cc2)[C@H]1CCCO | inconclusive: 79.4 µM [quencher, side channel, partial curve, poor fit]
33 | COc1ccc(/C=C(\C#N)c2nc3ccc(C)cc3[nH]2)cc1Oc1ccc(C(F)(F)F)cc1[N+](=O)[O-] | inconclusive: 70.8 µM [fluorescent, side channel, partial curve, poor fit]

— PubChem BioAssay AID493005 (National Center for Advancing Translational Sciences (NCATS), 2010)
